The whole screen tested about 410,000 compounds, of which about 6,400 (1.6%) were called active. Inconclusive results, whose numbers are uncertain, are shown with a selection of clear calls. Calls come from the whole dose curve; as a rule, active = well fitted inhibition curve with a large enough effect; inconclusive = small, poorly fitted or top-dose-only effect; inactive = no such curve, though single readings can be large or run the other way. No potency is given beside an inconclusive call; the fits are too rough.
Molecular target: Glucagon-like peptide 1 receptor (Homo sapiens) (UniProt P43220)
Sequence of UniProt P43220 (P43220 whole entry, looked up): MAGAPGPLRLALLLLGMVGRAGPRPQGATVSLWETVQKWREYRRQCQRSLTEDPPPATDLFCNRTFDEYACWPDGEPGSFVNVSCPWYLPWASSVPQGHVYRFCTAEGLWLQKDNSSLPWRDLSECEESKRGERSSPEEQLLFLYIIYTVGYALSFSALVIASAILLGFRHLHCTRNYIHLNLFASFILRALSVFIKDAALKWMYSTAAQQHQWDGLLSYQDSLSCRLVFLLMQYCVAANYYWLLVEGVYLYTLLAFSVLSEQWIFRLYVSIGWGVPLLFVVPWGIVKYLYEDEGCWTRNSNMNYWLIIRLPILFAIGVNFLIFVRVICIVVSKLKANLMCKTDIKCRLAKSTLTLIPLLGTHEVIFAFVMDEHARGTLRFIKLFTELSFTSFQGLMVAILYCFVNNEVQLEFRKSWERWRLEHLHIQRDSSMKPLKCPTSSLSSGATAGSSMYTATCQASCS
Assay: qHTS of GLP-1 Receptor Inverse Agonists (Inhibition Mode); note: nearly all actives have a fitted effect of over 55% in size
Details: HEK293 GLP-1R CRE-luciferase, luminescence, 24 h, GLP-1R form is constitutively active; series mostly up to 38.3 µM
Outline: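 Stable HEK293 clone (constitutively active GLP-1R + cAMP-response luciferase); 200 cells/uL plated, 12 h pre-culture, compound 24 hr, 37 deg C/5% CO2; detection reagent 12 min RT; luminescence.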
Potency is the fitted concentration of half-maximal effect; tags give direction and shape of the fitted curve.

| Structure (SMILES) | Potency |
| --- | --- |
| Cc1cc(C)nc(N2CCC(C(=O)N3CCN(c4cc(Cl)ccc4C)CC3)CC2)n1 | inconclusive [inhibitor, partial curve, poor fit] |
| CCC(CC)C1C(C#N)=C(N)Oc2n[nH]c(-c3ccccc3)c21 (stereo not given) | inactive |
| Cc1ccc2oc(C(=O)N(Cc3ccccc3)C3CCS(=O)(=O)C3)c(C)c2c1 (stereo not given) | inconclusive [inhibitor, single point] |
| CCOc1ccccc1C(=O)N1CCCCC1CCN1CCOCC1 (stereo not given) | inactive |
| Nc1nc(N)nc(-c2ccc(Oc3ccccc3)cc2)n1 | inactive |
| CCOC(=O)C1(CCC(C)C)CC(CSc2nc3ccccc3[nH]2)OC1=O (stereo not given) | inconclusive [inhibitor, single point] |
| O=C(CN1CCN(c2ccccc2)CC1)Nc1ccc(OCc2ccccc2)cc1 | inconclusive [inhibitor, single point] |
| CCCOc1cccc(C2c3c(oc4cc(C)c(C)cc4c3=O)C(=O)N2CCCN2CCOCC2)c1 (stereo not given) | inactive |
| Cc1ccc(NS(=O)(=O)c2cc(Br)cnc2N)c(Cl)c1 | inconclusive [inhibitor, single point] |
| Cc1ccc(-c2[nH]ncc2/C=C(\C#N)C(=O)NC2CCCCC2)cc1 | active: 7.94 µM |
| C/C(CC(=O)NCc1ccc(F)cc1)=N\NC(N)=S | inconclusive [inhibitor, single point] |
| NC(=O)c1ncn([C@@H]2O[C@H](CNCc3ccc(OCC(=O)Nc4nccs4)cc3)[C@@H](O)[C@H]2O)n1 | inactive |
| Nc1cccc(Nc2nc(OC(C(F)(F)F)C(F)(F)F)nc(OC(C(F)(F)F)C(F)(F)F)n2)c1 | active: 4.47 µM |
| CCOC(=O)c1c(C)[nH]c(-c2csc(N)n2)c1C | inactive |
| NS(=O)(=O)c1ccc(CCNC(=O)CSc2nc3ccsc3c(=O)n2CCCCCC(=O)O)cc1 | inactive |
| Cc1ccc(C(=O)c2cc([N+](=O)[O-])ccc2N2CCN(C)CC2)cc1 | inconclusive [inhibitor, partial curve, poor fit] |
| O=C(COc1coc(CN2CCN(c3ccccc3F)CC2)cc1=O)NCC1CCCO1 (stereo not given) | inactive |
| CCOC(=O)C1(CC2CCCCO2)CCN(Cc2nc(-c3cccs3)oc2C)CC1 (stereo not given) | inconclusive [inhibitor, single point] |
| Cc1ccc(C(=O)Nc2nc(C)c(C)s2)o1 | inconclusive [inhibitor, single point] |
| CCN(CCn1cccn1)Cc1ccccc1OCC(O)CN1CCc2ccccc2C1 (stereo not given) | inconclusive [inhibitor, single point] |
| Cc1cc(OCC(=O)N(C(C)C)C(C)C)ccc1Cl | inconclusive [inhibitor, partial curve, poor fit] |
| Cc1ccc(C)c(NC(=O)CCc2ccc(S(=O)(=O)NC3CCCCC3)cc2)c1 | inconclusive [inhibitor, single point] |

| Structure (SMILES) | Potency |
| --- | --- |
| CSc1nn(Cc2ccc(F)cc2)c(N)c1S(=O)(=O)c1ccc(Cl)cc1 | inconclusive [inhibitor, single point] |
| OCCN1CCN(CC(O)COc2ccc(Cl)cc2)CC1 (stereo not given) | inconclusive [inhibitor, partial curve, poor fit] |
| Cc1cc(C)c2cc(C(=O)Nc3ccccc3)[nH]c2c1 | inconclusive [inhibitor, single point] |
| COc1ccc(C(=O)Nc2ccc(N3CCN(C(=O)c4ccccc4C)CC3)cc2)cc1 | inconclusive [inhibitor, full curve, poor fit] |
| CS(=O)(=O)N(CC(=O)NCc1ccc2c(c1)OCO2)c1cccc(Cl)c1 | inconclusive [inhibitor, single point] |
| COc1ccccc1-c1sc2cc3c(cc2c1C#Cc1cncn1C)OCO3 | inconclusive [inhibitor, partial curve, poor fit] |
| Cc1c(Nc2scc(-c3ccccc3)[n+]2-c2ccccc2)c(=O)n(-c2ccccc2)n1C | inconclusive [inhibitor, single point] |
| COc1ccc(CCNC(=O)c2cccc(NC(=O)CC3SC(N4CCCCC4)=NC3=O)c2)cc1OC (stereo not given) | inactive |
| Cc1cc(C)cc(NC(=O)c2ccc(Cn3nc(C)c(Cl)c3C)o2)c1 | inconclusive [inhibitor, partial curve, poor fit] |
| COc1ccccc1OCCNC(=O)c1cccc(S(=O)(=O)N2CCN(Cc3ccccc3)CC2)c1 | inconclusive [inhibitor, single point] |
| CCc1cccc(CC)c1NC(=O)COC(=O)C1(C)CC1(Cl)Cl (stereo not given) | inconclusive [inhibitor, single point] |
| COc1ccc(C(=O)Nc2ccc3[nH]ccc3c2)cc1 | inconclusive [inhibitor, partial curve, poor fit] |
| CN(CCNC(=O)CN1C(=O)CSc2ccc(S(=O)(=O)N3CCCC3)cc21)Cc1ccccc1 | inconclusive [inhibitor, partial curve, poor fit] |
| CCOc1ccc(S(=O)(=O)Nc2ccc(Cl)cn2)c(C)c1C | active: 11.2 µM |
| Cc1cccc(-n2c(SCC(=O)Nc3ccccc3C)nc3c(oc4ccccc43)c2=O)c1 | inactive |
| O=C(COc1ccc(S(=O)(=O)NC2CCCCC2)cc1)NC1CCCCC1 | inconclusive [inhibitor, single point] |
| Cc1csc(NC(=O)C(C)Oc2ccc(Br)cc2)n1 (stereo not given) | inconclusive [inhibitor, single point] |
| COC(=O)c1ccc(NC(=O)CN(c2cccc(C(F)(F)F)c2)S(C)(=O)=O)cc1 | inconclusive [inhibitor, single point] |
| Cc1ccccc1S(=O)(=O)Cc1ccc(C(=O)N2CC(C)CC(C)C2)o1 (stereo not given) | inconclusive [inhibitor, partial curve, poor fit] |
| N#CCCN(Cc1ccccc1)C(C(=O)NC1CCCCC1)c1ccnc2ccccc12 (stereo not given) | inconclusive [inhibitor, single point] |
| CCCC(=O)N1CCCC(c2nc(-c3cccc(OC)c3)no2)C1 (stereo not given) | inconclusive [inhibitor, single point] |
| CCc1ccccc1N1C(=O)N(C)c2ccccc2S1(=O)=O | inconclusive [inhibitor, single point] |

| Structure (SMILES) | Potency |
| --- | --- |
| COc1cccc(CN(C)C(=O)CC23CC4CC(CC(C4)C2)C3)c1OC | inconclusive [inhibitor, partial curve, poor fit] |
| CC(C)(C)C(=O)c1no[n+]([O-])c1/C(=N/O)C(C)(C)C | inconclusive [inhibitor, partial curve, poor fit] |
| CC(C)=CCCC1(C)C=Cc2c(c(C)cc3c2[nH]c2cc(O)ccc23)O1 (stereo not given) | inconclusive [inhibitor, single point] |
| Cc1ccc(-c2cccc(C3CC=CC4C3C(=O)N(Cc3ccccc3)C4c3ccc4ccccc4c3)c2)cc1 (stereo not given) | inconclusive [inhibitor, partial curve, poor fit] |
| CCOc1ccc(OCCCC(=O)NCCc2ccc(OC)cc2)cc1 | inconclusive [inhibitor, single point] |
| C/C(=N\NC(=O)c1ccc(Cn2cc(Br)cn2)o1)c1ccc(NC(=O)c2ccoc2C)cc1 | inconclusive [inhibitor, partial curve, poor fit] |
| N#C/C(=C/c1ccc(F)cc1)C(N)=S | inactive |
| Cc1ccc2nc(=O)c(NNc3ccccc3)cnc2c1 | inconclusive [inhibitor, single point] |
| Cc1ccc(OCc2ccc(C(=O)Nc3nc4ccccc4n3C)o2)c([N+](=O)[O-])c1 | inactive |
| CC(C)Oc1ccc(-c2nc(NCC3CCCO3)c3ccccc3n2)cc1 (stereo not given) | inconclusive [inhibitor, single point] |
| COc1ccc(OCc2nnc(SCC(=O)NC3CC4CCC3C4)o2)cc1 (stereo not given) | inconclusive [inhibitor, single point] |
| O=C(O)c1cccc(Nc2ccnc(Nc3cccc(C(=O)O)c3)n2)c1 | inconclusive [inhibitor, full curve] |
| C#CCN(C[C@@H]1[C@@H](OC(=O)NCc2ccccc2F)[C@@H](OC(=O)NCc2ccccc2F)CN(C(=O)OC(C)C)N1C(=O)OC(C)C)S(=O)(=O)c1ccc(C)cc1 | inconclusive [inhibitor, partial curve, poor fit] |
| COc1ccc(C2=CC(c3cccc(C)c3)n3nnnc3N2)cc1 (stereo not given) | inactive |
| CC(C)COC(=O)Cc1c(O)c2ccccc2[nH]c1=O | inactive |
| Cc1nc(CC(=O)Nc2nc(C(C)(C)C)cs2)cs1 | inconclusive [inhibitor, single point] |
| O=C(NCc1ccc2c(c1)OCO2)c1ccccc1Cl | inactive |
| COc1ccc2cc(-c3[nH]ncc3CN3CCCN(c4ccccc4)CC3)ccc2c1 | inconclusive [inhibitor, single point] |
| COc1ccc(NC(=O)C2Cc3c(-c4cccc(NC(C)=O)c4)ccnc3O2)cc1 (stereo not given) | inconclusive [inhibitor, full curve, poor fit] |
| Cc1ccc(S(=O)(=O)NN2C(=O)/C(=C/c3cccc(F)c3)SC2=S)cc1 | inconclusive [inhibitor, single point] |
| CCNc1ccccc1CP(=O)(c1ccccc1)c1ccccc1O (stereo not given) | inconclusive [inhibitor, partial curve, poor fit] |

Reference: PubChem BioAssay AID624417 (National Center for Advancing Translational Sciences (NCATS), 2012)
